# Assay results as given in paper PMC12136788.
# This is one part of the list.
# B1: chr14:49642940:49642941:-_ENSMUSG00000061244_ENSMUST00000162175|mus_hu|FALSE|FALSE (ssRNA)
# RNA: GGGAGUUCUACAGUCCGACGAUCCAAAGCAUAAUCAAUAUGCUCAAUACAUAAAAAUUCCACAAGAAUGGUAAAAAUUCUGAAGGCAUUCCUUGGUAAGUCAGAAGGAUCAGAGAGCCUAUGACAUCUUUCAAAGGCUUGUUUCAACAGAGGAUUGAGCAUCA
# B2: chr2:47387792:47387793:-_ENSG00000143933_ENST00000272298|hu_hu|hu_hu_hu_mus_True|1_28 (ssRNA)
# RNA: GGGAGUUCUACAGUCCGACGAUCUAAGGACAAUGACAGUAAGAUAAGGGAAGAAAACAUGGAGGAAUGAAGUCCUAAUUACUAUACAUGCAUAUUUUUUGACAGUAAGGGAGAAACACCUUUUACAGAUAAGUUACACAAAGACAACAGAGGAUUGAGCAUCA
# B3: 93480285_93480405_1884_3pUTR_ENSMUSG00000056608_ENSMUST00000048665|mouse|control|control (ssRNA)
# RNA: GGGAGUUCUACAGUCCGACGAUCCCUUUUCUUGCUUGCUUUCUGAUUCCACCCUUUUUCGUGGCUUCUUCUCAGACAUGACCCUCACCUGGGUAUUCUGCAGCUUAGUGUAUGUCCCAGAACCAUCACUCUUCUUGGAAGAUGCAACAGAGGAUUGAGCAUCA
# B4: 70732754_70734444_1896_3pUTR_ENSMUSG00000020817_ENSMUST00000076270|mouse|control|control (ssRNA)
# RNA: GGGAGUUCUACAGUCCGACGAUCGCUUGAGGAAGUCCUCCAGCUCCUGCUUCUCUUUCAUCGUCUUCUCAAGCUGGUCAUUAGCUUGCCUGAGCAUUAACUGCAGUUUUUUCACCUGGUCUCUUGUUUCAGCUUCCUGAAUCUCAACAGAGGAUUGAGCAUCA
# B5: chr1:39494447:39494448:+_ENSG00000168653_ENST00000372967|hu_mus|hu_hu_hu_mus_False|68_108 (ssRNA)
# RNA: GGGAGUUCUACAGUCCGACGAUCGCAUCGACCAGCCUUCUUAUAGGGCUGUUCUGCGCUUAGGAACGUCAACCAUCGGUCCAGGCUGAUGCCCAGCUUUUUCUGUAUGUCAAGGAAAGGCAUGGCUCUGCAGUGCCCUUGUCACAACAGAGGAUUGAGCAUCA
# B6: 167247438_167248962_1453_CDS_ENSMUSG00000040836_ENSMUST00000111450|mouse|control|control (ssRNA)
# RNA: GGGAGUUCUACAGUCCGACGAUCGCUCCUCCUCUUGGGUGGGCAAGUGCAGUGCUGGGGAGGGUUGUCCUCAGAAGUGCCAUCUUCCAACAGCAUCACAUCCGUCCCUGAAUCCUGAGAGUAGCUGAAGCCUGUGUCACCGGUCAACAGAGGAUUGAGCAUCA
# B7: chr3:128516864:128516865:+_ENSG00000075785_ENST00000265062|hu_hu|motif|central (ssRNA)
# RNA: GGGAGUUCUACAGUCCGACGAUCCUGCAUUGUGACUAGCCUGUCAUCCACCAUCACCUCCUUGGUCAGAAAGUCAGCUCCGGUUGUGGCUUUGUACUGAUUGCUGAAUUUCUUAUUCACAUACUGGUUCAUGAGUGAUGUCUUCAACAGAGGAUUGAGCAUCA
# B8: 108930381_108930501_2154_3pUTR_ENSMUSG00000033623_ENSMUST00000046975|mouse|control|control (ssRNA)
# RNA: GGGAGUUCUACAGUCCGACGAUCUGCUAGUGUCUUAUUCAUUCUCUAACCUAACAAAGCAAUAAAUUGUAUGUGAGAAAGGUGUGUGUGUUAACAAAUACUAUCCUCUCUAUGACUGAAAAAGCCACUUCUGCUGAAGCGAGCCAACAGAGGAUUGAGCAUCA
# B9: chrX:153990882:153990883:-_ENSMUSG00000046873_ENSMUST00000058098|mus_hu|FALSE|FALSE (ssRNA)
# RNA: GGGAGUUCUACAGUCCGACGAUCAGCUCCUGAGAGGGAAAUCAGGUACUUGACAAAUGUCUCCACAACCACUGGCAGAUCUAUGCUUAGAAAGUUAAAACGUGGGAUAAAACUGGUGAUGCUCACUGUGUAGUGAAGAUGCAGCAACAGAGGAUUGAGCAUCA
# B10: 82825173_82825293_2862_3pUTR_ENSMUSG00000042724_ENSMUST00000035987|mouse|control|control (ssRNA)
# RNA: GGGAGUUCUACAGUCCGACGAUCGGGCUGUGAGGGUGACAUGGGUGGGAGUCAAGGACUGGUUGGGGUCUCUCUUGAAGCGCUCCACUCGGACAUUAACCAGGGGGUUGUGGGUACAUUGGGUUAGGGGUGGAGCUUCAACUGCAACAGAGGAUUGAGCAUCA
# B11: 38037259_38046042_748_3pUTR_ENSG00000065882_ENST00000510573|human|control|control (ssRNA)
# RNA: GGGAGUUCUACAGUCCGACGAUCAAAUCGAGUGGCACUGGGUGGUAAUUCACUUCCAAUAUUCUCUGCUGCCAUCUGCGAUGUCUGCUUCAUCUCCCCAAUAUGGAUGUGUUCUUUCUGUUUCUCUUCAUAUAAACAUCUCAGCAACAGAGGAUUGAGCAUCA
# B12: chr1:41461666:41461667:+_ENSG00000171793_ENST00000372621|hu_hu|FALSE|FALSE (ssRNA)
# RNA: GGGAGUUCUACAGUCCGACGAUCCCAUUUCAUCAGCAUUUUUCUUGGCUGCCUCUCAAUAGGAAGGUCAAGUCUUCGAAGAAAAUAAUCUACAACCCCUUGCUCCUCUAACAACAAGGGGACUCGGUAGAUGGAUGAGACAUCCAACAGAGGAUUGAGCAUCA
# B13: chr2:42509997:42509998:+_ENSG00000143924_ENST00000318522|hu_mus|hu_hu_hu_mus_True|1_38 (ssRNA)
# RNA: GGGAGUUCUACAGUCCGACGAUCUCGCUGAGUCCUCUCCUCAUAAUUAAACAGGACUACCACUGAGGCGAUAAAAUAAACUAUCUCCCCUGUGGGAAGAAGGUAAACAUUCGCUCUACAGUCCUUUCCUCGAUAACCAUAUGCCAACAGAGGAUUGAGCAUCA
# B14: chr14:53324496:53324497:-_ENSG00000073712_ENST00000341590|hu_mus|motif|central (ssRNA)
# RNA: GGGAGUUCUACAGUCCGACGAUCUAUUGUAACACAAAGGCUGCAUAUCUUAGGCAGAUAGUGAGUAUGCUGGUGAAUACGGAGAGUACUGUAAUACAGUUUGGUGUAAAACUAAACACAAAACAAUGUACAGCAUGCUUACUCCAACAGAGGAUUGAGCAUCA
# Molecular target: T1, UNK ZnF1-3 (human, UniProt Q9C0B0 31-174)
# T1 sequence: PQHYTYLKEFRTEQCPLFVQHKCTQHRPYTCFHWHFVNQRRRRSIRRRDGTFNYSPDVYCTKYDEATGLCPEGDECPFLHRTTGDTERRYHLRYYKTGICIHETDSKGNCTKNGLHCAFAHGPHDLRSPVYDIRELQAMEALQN
# Assay: nsRBNS (natural sequence RNA bind-n-seq); RBNS binding buffer (assumed for nsRBNS): 25 mM Tris pH 7.5, 150 mM KCl, 3 mM MgCl2, 0.01% Triton X-100, 500 ug/ml BSA, 20 U/ml SUPERase-In, 4 C; UNK is unkempt and MSI1 is Musashi-1; names of the RNAs are library labels; protein concentration not given here; high values mean tight binding
row,Binder,binding signal [enrichment R]
1,B1,0.354
2,B2,1.95
3,B3,0.409
4,B4,0.41
5,B5,0.719
6,B6,1.02
7,B7,0.54
8,B8,1.34
9,B9,1.71
10,B10,1.43
11,B11,0.63
12,B12,1.07
13,B13,1.11
14,B14,0.819
